Assay results taken from PubChem BioAssay AID1479 (National Center for Advancing Translational Sciences (NCATS), 2009).
The whole screen tested about 280,000 compounds, of which about 820 (0.29%) were called active. The inconclusive results got no clear call from the source; some entries with a clear call stand among them for comparison. Calls follow the shape of the dose curve; as a rule, active = well fitted curve in either direction with a large enough effect; inconclusive = small, poorly fitted or top-dose-only effect; inactive = flat fitted curve, though single readings scatter. Potencies of inconclusive entries are left out as doubtful fits.

assay: Total Fluorescence Counterscreen for Inhibitors of the Interaction of Thyroid Hormone Receptor and Steroid Receptor Coregulator 2; conditions: TRb/SRC2 Texas Red total fluorescence interference; series mostly up to 106 µM; fluorescence change, negative = quenching: at the top concentration
Outline: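 Flags fluorescent or light-absorbing compounds by total fluorescence, S + 2P, at 555 nm excitation and 632 nm emission. Mixture: 20 nM Texas Red SRC2 peptide, 0.6 uM human TRb LBD, 1 uM T3, 5% DMSO; compound exposure 5 h at ambient temperature.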
% is scaled to controls: 0 for no effect and ±100 for the full control effect; potency is read from the fitted curve at half-maximal effect; tags tell the direction and shape of the fitted curve or compound fluorescence and quenching.

SMILES	Potency	fluorescence change, negative = quenching
Cc1cc(C)c2oc(-c3cccc(NC(=O)c4ccc(Br)o4)c3)nc2c1	inconclusive [falling, full curve, poor fit]	
CCOc1ccc(/C=N/NC(=O)c2cc(-c3ccco3)nc3ccccc23)cc1		inactive: 0.699%
Cc1c(N/N=C(\C#N)C(=O)c2ccccc2)c(=O)n(-c2ccccc2)n1C	active: 2.24 µM [quencher]	
Cc1ccc(C)c(Cn2c(=O)n(-c3ccc(Cl)cc3)c(=O)c3c4c(sc32)CCC4)c1	inconclusive [falling, full curve, poor fit]	
Cc1nc2c(c(C)c1CCC(=O)N1CCN(c3ccccc3)CC1)c(=O)n(C)c(=O)n2C	inconclusive	
O=C(COc1ccc(F)cc1)Nc1ccc2nc(SCC(=O)N3CCCC3)sc2c1	inconclusive [falling, partial curve, poor fit]	
Cc1ccc(-c2cn3c(n2)sc2cc(C(=O)NCCC4=CCCCC4)ccc23)c(C)c1	inconclusive [falling, full curve, poor fit]	
COc1ccc(/C=C(/NC(=O)c2ccccc2)C(=O)N/N=C/c2ccncc2)cc1	inconclusive [quencher, full curve]	
Oc1cccc(-c2nc3ccccc3s2)c1		inactive: -3.16%
Cc1cc(F)ccc1NC(=O)CCS(=O)(=O)c1cc2c(cc1C)NC(=O)CO2	inconclusive [falling, full curve, poor fit]	
O=C(NCCC1=CCCCC1)c1ccc2c(c1)sc1nc(-c3ccc(F)cc3)cn12		inactive: -1.31%
CCOC(=O)c1sc(Nc2nc3cc4c(cc3s2)OCO4)cc1C	active: 0.316 µM [quencher]	
CC(=O)Nc1ccc(NC(=O)C2(C)CC2(Cl)Cl)cc1 (configuration not stated)		inactive: -0.101%
Cc1cccc(-c2cc(C(=O)Nc3ccc4c(c3)OCCO4)c3ccccc3n2)c1		inactive: 2.45%
CCc1cccc2c(C(=O)CSc3nncn3-c3ccccc3OC)c[nH]c12	active: 89.1 µM [quencher]	
CCN1CCN(c2oc(-c3ccc(COc4ccccc4C)o3)nc2C#N)CC1	active: 28.2 µM [quencher]	
Oc1c(C(Nc2ccccn2)c2ccccc2F)ccc2cccnc12 (configuration not stated)	inconclusive [falling, full curve, poor fit]	
Cc1ccc(CNC(=O)c2cc(=O)c3cc(C)ccc3o2)cc1	inconclusive [falling, full curve, poor fit]	
CC(=O)Nc1ccccc1-c1nc2ccccc2n(C(C)C(=O)Nc2ccccc2C(F)(F)F)c1=O (configuration not stated)		inactive: -0.744%
CCCN(CCC)CCCNC(=O)c1cc2c(=O)n(C)c3ccccc3c2s1		inactive: -0.141%
COc1cc(C2C(Oc3ccccc3C)C(=O)N2Cc2ccc(F)cc2)cc(OC)c1OC (configuration not stated)	inconclusive [falling, partial curve, poor fit]	
COc1cc(-c2nc(S(=O)(=O)c3ccc(C)cc3)c(N3CCOCC3)o2)cc(OC)c1OC		inactive: 2.45%
Cc1c(C(=O)Nc2cc(F)ccc2F)sc2nc(-c3ccc(F)cc3)cn12	inconclusive [falling, partial curve, poor fit]	

SMILES	Potency	fluorescence change, negative = quenching
COc1cc(Cl)c(C)cc1NC(=O)c1cnc(N2CCCCC2)c2ccccc12	inconclusive [falling, full curve, poor fit]	
COc1cccc(/C=N/NC(=O)CCCc2ccc(OC)c(C)c2)c1	inconclusive [quencher, full curve]	
CCc1ccc(Nc2nc3ccccc3nc2NS(=O)(=O)c2ccccc2)cc1		inactive: -1.45%
Cc1ccc(NC(=O)/C=C/c2ccccc2Cl)cc1Cl	inconclusive [quencher, full curve]	
CC1CCN(c2ccc(-c3cccc(NS(=O)(=O)c4ccc(F)cc4F)c3)nn2)CC1	active: 8.91 µM [quencher]	
COC(=O)c1ccc(NC(=O)C(=O)NCCc2csc(-c3ccc(F)cc3)n2)cc1	active: 0.0004 µM [quencher]	
Cc1ccc(O)c(NC(=O)C2=CC(c3ccco3)=NS(=O)(=O)N2C)c1		inactive: 1.11%
Cc1ccc2onc(CC(=O)N3CCN(c4cccc(Cl)c4)CC3)c2c1	active: 25.1 µM [quencher]	
O=C1N(c2ccccc2)C[C@@H]2C[C@@H](c3cccc4c3OCO4)N3CCC[C@@]123		inactive: 1.09%
COc1ccc(CC(=O)Nc2nc3c(s2)CCCC3)cc1	inconclusive [falling, partial curve, poor fit]	
COc1ccc(CCNC(=O)CCCn2c(=O)c3ccccc3n(Cc3ccccc3)c2=O)cc1OC	inconclusive [falling, full curve, poor fit]	
CCOc1cc(NC(=O)CCl)c(OCC)cc1NC(=O)CCl	inconclusive [fluorescent, partial curve]	
Cc1cccc(CN2CCC(CNC(=O)Cn3ncc4c([nH]c5ccc(C)cc54)c3=O)CC2)c1	inconclusive [falling, full curve, poor fit]	
Cc1cc2oc(=O)c(CC(=O)NCCc3ccccc3F)c(C)c2c2occ(C(C)(C)C)c12		inactive: 0.0348%
Cc1ccc(-n2c(-c3ccc(Br)cc3)c[n+]3c2CCc2ccc4cccnc4c2-3)cc1		inactive: -1.62%
Cc1c(C(=O)OC2CCCCC2)[nH]c2c1C(=O)CC(c1ccc(F)cc1)C2 (configuration not stated)	inconclusive [falling, full curve, poor fit]	
CCOC(=O)c1c(NC(=O)c2cc(-c3ccccc3OC)on2)sc(C)c1C	inconclusive [falling, full curve, poor fit]	
Oc1ccccc1-c1nc(-c2cccs2)c(-c2cccs2)[nH]1		inactive: -2.35%
COc1ccc(NC(=O)C2CCC(CNS(=O)(=O)c3cccc4nsnc34)CC2)cc1OC (configuration not stated)	inconclusive [falling, partial curve, poor fit]	
CCCOC(=O)c1cccc(Nc2nc(CCC)cc(=O)[nH]2)c1	inconclusive [falling, full curve, poor fit]	
O=[N+]([O-])c1ccc(O)c(C2=NNC(c3ccccc3F)C2)c1 (configuration not stated)		inactive: -3.98%
CSc1nc(NCCOC(C)=O)c(C#N)c(-c2ccc(C(C)(C)C)cc2)n1	inconclusive [falling, full curve, poor fit]	
CCC(=O)Nc1ccc(C(=O)NNC(=O)c2ccc([N+](=O)[O-])cc2)cc1		inactive: -1.22%

SMILES	Potency	fluorescence change, negative = quenching
CCn1c2ccccc2c2cc(CN3CCN(Cc4ccc(Br)cc4)CC3)ccc21	inconclusive	
Cc1ccc2oc3c(c(=O)c2c1)C(c1ccc(O)cc1)N(CCCN(C)C)C3=O (configuration not stated)	active: 5.62e-05 µM [quencher]	
Cc1ccc(-n2c(=O)c3cccnc3n2CC(=O)NCc2ccc(Cl)cc2)cc1	inconclusive [falling, full curve, poor fit]	
COC(=O)c1ccc2c(c1)C(C)(C)C(/C=C/c1ccc(OC)c(OC)c1OC)=[N+]2C	inconclusive [rising, partial curve, poor fit]	
CCOc1cc(C2c3c(-c4cc(C)ccc4O)n[nH]c3C(=O)N2CCCOC(C)C)ccc1O (configuration not stated)	inconclusive [falling, partial curve, poor fit]	
CSc1nncc(/C(C)=N\Nc2ccccc2)n1		inactive: 0.596%
CCN(C(=S)Nc1cccc(C)c1)c1ccccc1	inconclusive [falling, partial curve, poor fit]	
Cc1ccc(CN(C(=O)c2ccc(C(C)(C)C)cc2)c2ccccn2)o1	inconclusive [falling, full curve, poor fit]	
Cc1cc(C)cc(-n2cccc2/C=C2/C(=N)N3C(=NC2=O)SN=C3S(C)(=O)=O)c1		inactive: -8.05%
O=C(Cc1ccccc1)Nc1sc2c(c1C(=O)Nc1ccccc1Cl)CCCCC2	inconclusive [falling, full curve, poor fit]	
CCC(CC)C(=O)Nc1nnc(S(=O)(=O)N2CCCCCC2)s1	inconclusive [quencher, partial curve]	
Cc1ccc2nc(/C(C#N)=C/c3ccccc3F)[nH]c2c1	inconclusive [falling, partial curve, poor fit]	
CCn1cc(CNC(=O)c2cc(-c3ccc(C)cc3)nc3ccc(Br)cc23)c(C)n1	inconclusive [falling, full curve, poor fit]	
COc1cccc(NC(=O)C2CCN(c3ccc(Sc4ccc(C)cc4)nn3)CC2)c1	inconclusive [falling, full curve, poor fit]	
CSc1nc(NCCOCCO)c2sc3nc(-c4ccco4)c4c(c3c2n1)CCC4	inconclusive [quencher, partial curve]	
O=C(NC1CCCC1)c1ccc2c(=O)n(Cc3ccccc3)c(SCc3ccccc3F)nc2c1	inconclusive [falling, partial curve, poor fit]	
Cc1nc(N2CCOCC2)c2c(C(=O)N3CCN(c4ccccc4F)CC3)c(C)oc2n1	inconclusive [falling, partial curve, poor fit]	
CC(C)c1ccc(C2Sc3ccccc3NC3=C2C(=O)c2ccccc23)cc1 (configuration not stated)		inactive: -5.04%
CCc1ccccc1NC(=O)Cn1c(=O)n(Cc2ccco2)c(=O)c2ccccc21	inconclusive [falling, full curve, poor fit]	
COc1ccc(/C=N/NC(=O)c2cccc([N+](=O)[O-])c2)cc1OC(=O)c1ccccc1		inactive: 0.319%
Cc1nn(C)c2c1c(C(F)(F)F)cc(=O)n2CC(=O)NCc1ccc(OC(C)C)cc1	inconclusive [falling, full curve, poor fit]	
